This is one part of the list. Most values come without repeats; read them as rough.
How the values were obtained:
Assay in all cases: cell count relative to DMSO control; melanoma cells; higher = more viable cells
Settings in all cases: library dose: standard library concentration; 72 h
501Mel = tested on: 501Mel
A101D = tested on: A101D
A2058 = tested on: A2058
A375 = tested on: A375
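Also: cells treated in 1,536-well plates, then fixed and DAPI-stained, with nuclei counted from automated high-throughput microscope images.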

Structure (SMILES)	cell count (501Mel)	cell count (A101D)	cell count (A2058)	cell count (A375)
O=C(/C=C/c1cccnc1)NCCCCC1CCN(C(=O)c2ccccc2)CC1 + COC(=O)c1sccc1S(=O)(=O)Nc1ccc(Nc2ccccc2)cc1OC [GSK0660] (first compound 0.05 µM, partner dose 5 µM)	80.8%	82.5%	109%	102%
O=C(/C=C/c1cccnc1)NCCCCC1CCN(C(=O)c2ccccc2)CC1 + O=c1cc(-c2cccc3c2Sc2ccccc2S3)oc(N2CCOCC2)c1 [KU55933] (first compound 0.05 µM, partner dose 5 µM)	78.8%	72.7%	81.8%	106%
O=C(/C=C/c1cccnc1)NCCCCC1CCN(C(=O)c2ccccc2)CC1 + O=C(O)C(=O)Nc1sc2c(c1C(=O)O)CCNC2 [TCS401] (first compound 0.05 µM, partner dose 8.33333 µM)	83.2%	86.5%	85.7%	189%
Cc1ccc(Nc2nccc(N(C)c3ccc4c(C)n(C)nc4c3)n2)cc1S(N)(=O)=O [Pazopanib] + O=C1NC(=O)/C(=C/c2ccc(-c3ccc(F)cc3O)o2)S1 [AS252424] (first compound 2 µM, partner dose 5 µM)	100%	85.8%	83.3%	106%
Cc1ccc(Nc2nccc(N(C)c3ccc4c(C)n(C)nc4c3)n2)cc1S(N)(=O)=O [Pazopanib] + COc1ccc(-c2ccc3c(N4CCOCC4)nc(N4C[C@@H](C)O[C@@H](C)C4)nc3n2)cc1CO [KU0063794] (first compound 2 µM, partner dose 0.1 µM)	83.3%	77.9%	76.7%	92.5%
CC1(C)CCC(c2ccc(Cl)cc2)=C(CN2CCN(c3ccc(C(=O)NS(=O)(=O)c4ccc(N[C@H](CCN5CCOCC5)CSc5ccccc5)c(S(=O)(=O)C(F)(F)F)c4)cc3)CC2)C1 + CCN(CC)CCCCNc1ncc2cc(-c3cc(OC)cc(OC)c3)c(NC(=O)NC(C)(C)C)nc2n1 [PD173074] (first compound 2 µM, partner dose 0.5 µM)	69.9%	51.9%	83.6%	68.5%
Cc1ccc(Nc2nccc(N(C)c3ccc4c(C)n(C)nc4c3)n2)cc1S(N)(=O)=O [Pazopanib] + COC(=O)c1sccc1S(=O)(=O)Nc1ccc(Nc2ccccc2)cc1OC [GSK0660] (first compound 2 µM, partner dose 5 µM)	89.2%	92.1%	77.9%	84.1%
Cc1ccc(Nc2nccc(N(C)c3ccc4c(C)n(C)nc4c3)n2)cc1S(N)(=O)=O [Pazopanib] + O=C(O)C(=O)Nc1sc2c(c1C(=O)O)CCNC2 [TCS401] (first compound 2 µM, partner dose 8.33333 µM)	84.6%	70.3%	92.6%	135%
CC1(C)CCC(c2ccc(Cl)cc2)=C(CN2CCN(c3ccc(C(=O)NS(=O)(=O)c4ccc(N[C@H](CCN5CCOCC5)CSc5ccccc5)c(S(=O)(=O)C(F)(F)F)c4)cc3)CC2)C1 + COc1ccc(COc2ccc(Cc3cnc(N)nc3N)cc2OC)cc1 [GW2580] (first compound 2 µM, partner dose 5 µM)	74.6%	58.4%	86.4%	51.7%
O=C(/C=C/c1cccnc1)NCCCCC1CCN(C(=O)c2ccccc2)CC1 + Oc1cc(-c2nc(-c3ccccc3)[nH]c2-c2ccncc2)ccc1Cl [L779450] (first compound 0.05 µM, partner dose 1 µM)	63.8%	69.6%	119%	95.5%
O=C(/C=C/c1cccnc1)NCCCCC1CCN(C(=O)c2ccccc2)CC1 + O=S(=O)(c1ccccc1)N(CC(F)(F)F)c1ccc(C(O)(C(F)(F)F)C(F)(F)F)cc1 [T0901317] (first compound 0.05 µM, partner dose 7 µM)	45.5%	88.1%	108%	106%
CC1(C)CCC(c2ccc(Cl)cc2)=C(CN2CCN(c3ccc(C(=O)NS(=O)(=O)c4ccc(N[C@H](CCN5CCOCC5)CSc5ccccc5)c(S(=O)(=O)C(F)(F)F)c4)cc3)CC2)C1 + Oc1nc(-c2ccc(C(F)(F)F)cc2)nc2c1CSCC2 [XAV939] (first compound 2 µM, partner dose 10 µM)	71.1%	56.5%	65%	48.2%
O=C(/C=C/c1cccnc1)NCCCCC1CCN(C(=O)c2ccccc2)CC1 + COc1cc2ncnc(Nc3ccc(Oc4ccccc4)cc3)c2cc1OC [SrcI1] (first compound 0.05 µM, partner dose 10 µM)	62%	63%	98.3%	149%
Cc1ccc(Nc2nccc(N(C)c3ccc4c(C)n(C)nc4c3)n2)cc1S(N)(=O)=O [Pazopanib] + O=S(=O)(c1ccccc1)N(CC(F)(F)F)c1ccc(C(O)(C(F)(F)F)C(F)(F)F)cc1 [T0901317] (first compound 2 µM, partner dose 7 µM)	55.1%	82.7%	95.5%	110%
O=C(/C=C/c1cccnc1)NCCCCC1CCN(C(=O)c2ccccc2)CC1 + c1cc(-c2cnn3cc(-c4ccc(OCCN5CCCCC5)cc4)cnc23)ccn1 [Dorsomorphin] (first compound 0.05 µM, partner dose 2 µM)	59.8%	72.4%	89.6%	103%
O=C(/C=C/c1cccnc1)NCCCCC1CCN(C(=O)c2ccccc2)CC1 + COc1ccc(COc2ccc(Cc3cnc(N)nc3N)cc2OC)cc1 [GW2580] (first compound 0.05 µM, partner dose 5 µM)	73.4%	88.5%	75.1%	108%
CC1(C)CCC(c2ccc(Cl)cc2)=C(CN2CCN(c3ccc(C(=O)NS(=O)(=O)c4ccc(N[C@H](CCN5CCOCC5)CSc5ccccc5)c(S(=O)(=O)C(F)(F)F)c4)cc3)CC2)C1 + Cc1cc(N2CCOCC2)cc2[nH]c(-c3c(NC[C@@H](O)c4cccc(Cl)c4)cc[nH]c3=O)nc12 [BMS536924] (first compound 2 µM, partner dose 1 µM)	–	43.1%	77.6%	76.6%
Cc1ccc(Nc2nccc(N(C)c3ccc4c(C)n(C)nc4c3)n2)cc1S(N)(=O)=O [Pazopanib] + N#Cc1c(O)c2c(-c3ccc(-c4ccccc4O)cc3)csc2[nH]c1=O [A769662] (first compound 2 µM, partner dose 10 µM)	109%	94.5%	116%	93.7%
CC1(C)CCC(c2ccc(Cl)cc2)=C(CN2CCN(c3ccc(C(=O)NS(=O)(=O)c4ccc(N[C@H](CCN5CCOCC5)CSc5ccccc5)c(S(=O)(=O)C(F)(F)F)c4)cc3)CC2)C1 + CS(=O)(=O)c1ccc(C(=O)Nc2ccc(Cl)c(-c3ccccn3)c2)c(Cl)c1 [vismodegib] (first compound 2 µM, partner dose 5 µM)	–	46.3%	67.6%	68.2%
CC1(C)CCC(c2ccc(Cl)cc2)=C(CN2CCN(c3ccc(C(=O)NS(=O)(=O)c4ccc(N[C@H](CCN5CCOCC5)CSc5ccccc5)c(S(=O)(=O)C(F)(F)F)c4)cc3)CC2)C1 + Cc1cc([N+](=O)[O-])ccc1NS(=O)(=O)c1cc(Cl)ccc1Cl [FH535] (first compound 2 µM, partner dose 5 µM)	71.6%	30.5%	80.9%	46.3%
O=C(/C=C/c1cccnc1)NCCCCC1CCN(C(=O)c2ccccc2)CC1 + O=C(CCCCCCC(=O)Nc1ccccc1)NO [vorinostat] (first compound 0.05 µM, partner dose 0.4 µM)	–	67.2%	78.7%	117%
Cc1ccc(Nc2nccc(N(C)c3ccc4c(C)n(C)nc4c3)n2)cc1S(N)(=O)=O [Pazopanib] + C[C@@H]1CCN(C(=O)CC#N)C[C@@H]1N(C)c1ncnc2[nH]ccc12 [CP690550] (first compound 2 µM, partner dose 5 µM)	–	98.7%	112%	76.2%
O=C(/C=C/c1cccnc1)NCCCCC1CCN(C(=O)c2ccccc2)CC1 + COc1cc(N2CCC(N3CCN(C)CC3)CC2)ccc1Nc1ncc(Cl)c(Nc2ccccc2S(=O)(=O)C(C)C)n1 [NVP-TAE684] (first compound 0.05 µM, partner dose 0.4 µM)	68.3%	78.1%	81.2%	129%
O=C(/C=C/c1cccnc1)NCCCCC1CCN(C(=O)c2ccccc2)CC1 + CCCCCCCCCCCC1=C(O)C(=O)C=C(O)C1=O [Embelin] (first compound 0.05 µM, partner dose 6 µM)	79.3%	68.5%	93.2%	112%
CC1(C)CCC(c2ccc(Cl)cc2)=C(CN2CCN(c3ccc(C(=O)NS(=O)(=O)c4ccc(N[C@H](CCN5CCOCC5)CSc5ccccc5)c(S(=O)(=O)C(F)(F)F)c4)cc3)CC2)C1 + O=C1NC(=O)/C(=C/c2ccc(-c3ccc(F)cc3O)o2)S1 [AS252424] (first compound 2 µM, partner dose 5 µM)	80.2%	56.8%	93.9%	67.1%

From the supplement of paper PMC4604168 (melanoma cell lines)
